We go through two compounds from patent US20240262848A1, “HETEROCYCLIC COMPOUNDS, COMPOSITIONS THEREOF, AND METHODS OF TREATMENT THEREWITH” (BeiGene, Ltd., priority 2022, published 2024).

In assay [1] the target is GST-tagged GDP-loaded WT KRAS (amino acids 1-169) (Homo sapiens, UniProt P01116). Kind of assay: KRAS WT probe displacement assay (run with the KRAS G12V assay, TR-FRET). Type of assay: binding. Conditions: Table 4; WT KRAS 3 nM, biotinylated probe 1 60 nM. A general note: In TR-FRET formats the signal depends on donor and acceptor labels being close together.
In assay [2] the target is GST-tagged GDP-loaded WT KRAS (amino acids 1-188) (Homo sapiens, UniProt P01116). Nature of the assay: KRAS WT probe displacement assay (run with the KRAS G12D assay, TR-FRET). It counts as binding. Conditions: Table 5; WT KRAS 3 nM, biotinylated probe 1 60 nM.

With `CN1CCC[C@@]2(COc3nc4c5c(nc(-c6cc(N)cc(Cl)c6C(F)(F)F)c(F)c5n3)O[C@H]3COCC[C@@H]3N4C)CCC[C@@H]12` [Example 64, 3-chloro-5-((7aR,11aS)-4-fluoro-12-methyl-2-(((4aS,7aR)-1-methyloctahydro-4aH-cyclopenta[b]pyridin-4a-yl)methoxy)-7a, 8,10,11,11a, 12-hexahydro-7,9-dioxa-1,3,6,12-tetraazapleiaden-5-yl)-4-(trifluoromethyl)aniline], the IC50 in assay [1] and in assay [2] was 0.23 nM in each case.
On to `Cc1cc(N)cc(-c2nc3c4c(nc(OC[C@]56CCC[C@H]5N(C)CCC6)nc4c2F)N(C)[C@H]2CCOC[C@@H]2O3)c1C(F)(F)F` [Example 65, 3-((7aR,11aS)-4-fluoro-12-methyl-2-(((4aS,7aR)-1-methyloctahydro-4aH-cyclopenta[b]pyridin-4a-yl)methoxy)-7a, 8,10,11,11a, 12-hexahydro-7,9-dioxa-1,3,6,12-tetraazapleiaden-5-yl)-5-methyl-4-(trifluoromethyl)aniline], for which the IC50 in assay [1] and in assay [2] was 0.61 nM in each case.
